Results on 86 compounds are retold here after paper PMC4336329 (PLoS ONE, 2015).

Screen size: about 310,000 compounds; about 2,200 (0.71%) showed an effect of 50% or more. The effect is printed as a negative number. Some of the results follow.

The assay deals with human ether-à-go-go-related gene (hERG) potassium channel (human, UniProt Q12809). In words: primary screen, population patch clamp on CHO cells stably expressing hERG.
human ether-à-go-go-related gene (hERG) potassium channel, sequence (Q12809 whole entry, looked up): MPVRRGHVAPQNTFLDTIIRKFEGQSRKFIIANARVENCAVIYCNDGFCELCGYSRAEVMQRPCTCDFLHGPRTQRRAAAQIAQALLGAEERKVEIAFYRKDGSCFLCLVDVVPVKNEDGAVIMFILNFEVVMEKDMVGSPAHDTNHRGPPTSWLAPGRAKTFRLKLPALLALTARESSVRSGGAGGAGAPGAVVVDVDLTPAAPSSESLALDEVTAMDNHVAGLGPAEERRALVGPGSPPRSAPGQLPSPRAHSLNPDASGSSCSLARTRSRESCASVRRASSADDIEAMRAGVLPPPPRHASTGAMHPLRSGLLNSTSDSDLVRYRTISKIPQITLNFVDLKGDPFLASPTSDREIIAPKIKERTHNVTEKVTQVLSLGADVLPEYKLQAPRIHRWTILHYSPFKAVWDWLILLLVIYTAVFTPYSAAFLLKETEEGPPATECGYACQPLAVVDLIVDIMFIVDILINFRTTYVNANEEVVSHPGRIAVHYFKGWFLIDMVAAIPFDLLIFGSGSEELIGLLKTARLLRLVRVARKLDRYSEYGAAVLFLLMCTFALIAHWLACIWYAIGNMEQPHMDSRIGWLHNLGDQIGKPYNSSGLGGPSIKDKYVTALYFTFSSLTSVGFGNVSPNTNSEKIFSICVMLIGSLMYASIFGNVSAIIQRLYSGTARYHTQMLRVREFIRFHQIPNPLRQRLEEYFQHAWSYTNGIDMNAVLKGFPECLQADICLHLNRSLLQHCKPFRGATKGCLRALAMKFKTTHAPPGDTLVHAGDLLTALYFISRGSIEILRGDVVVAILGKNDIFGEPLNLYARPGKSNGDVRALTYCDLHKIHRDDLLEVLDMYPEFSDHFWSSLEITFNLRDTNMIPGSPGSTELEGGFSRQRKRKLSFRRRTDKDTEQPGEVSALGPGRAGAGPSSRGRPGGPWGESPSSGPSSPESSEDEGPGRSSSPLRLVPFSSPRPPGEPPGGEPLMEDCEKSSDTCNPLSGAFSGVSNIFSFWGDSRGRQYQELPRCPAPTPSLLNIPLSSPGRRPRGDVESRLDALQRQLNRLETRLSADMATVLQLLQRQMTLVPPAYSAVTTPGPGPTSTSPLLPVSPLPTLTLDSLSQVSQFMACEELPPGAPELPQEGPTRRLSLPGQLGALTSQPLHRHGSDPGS
Turning to `Cc1c(C(=O)Nc2cccc([N+](=O)[O-])c2)cnn1-c1ccccc1`, the “hERG current change (%, negative = inhibition) at 1uM” value is 8.38%. Under `COc1cc(OC)cc(C(=O)NC(=S)N2CCCCCC2)c1` stands 15.5%.

Consider `CCOC(=O)C1CCCN(Cc2nc(C3CC3)no2)C1` (centres unmarked), for which the “hERG current change (%, negative = inhibition) at 1uM” value stood at 14.8%. Under `O=C(COC(=O)c1ccccc1O)Nc1ccc(S(=O)(=O)N2CCCCC2)cc1` stands 10.7%. On to `O=C(c1cc(C2CC2)nn1-c1ccccc1)N1CCN(Cc2ccc(Cl)cc2)CC1`, for which the “hERG current change (%, negative = inhibition) at 1uM” value is -6.69%. The result for `N#Cc1ccc(-c2ccc(OCC(=O)NCCc3ccccc3)cc2)cc1` reads 14.3%; that for `CNc1ccc(Br)cc(C(=O)/C=C/c2cccc(OC)c2OC)c1=O`, -10.7%; that for `CCOC(=O)c1c(NC(=O)CN2CCCc3ccccc32)sc(C(C)=O)c1C`, 13.8%. Under `CN(C)c1ccc(/C=N/NC(=O)CCCCCNC(=O)c2ccccc2)cc1` stands 14%; under `COc1ccccc1NC(=O)COC(=O)c1ccc([N+](=O)[O-])s1`, 7.58%.

Turning to `NC(=O)c1ccsc1NC(=O)COC(=O)c1cc(Cl)ccc1O`, the “hERG current change (%, negative = inhibition) at 1uM” value is recorded as 2.98%. On to `CCOC(=O)C1CCN(c2cc(=O)n(-c3ccc(OC)cc3)c(=O)[nH]2)CC1`, for which the “hERG current change (%, negative = inhibition) at 1uM” value is 10.3%. The result for `Cc1ccc(NC(=O)/C(=C/c2cccs2)NC(=O)c2ccco2)c(C)c1` reads -0.908%; that for `O=C(c1cc(-c2ccco2)on1)N1CCCc2ccccc21`, 13.7%; that for `O=C(O)c1ccccc1OC(=O)C12CC3CC(CC(C3)C1)C2`, 19.2%. Under `CCCCc1ccc(-c2ccc(C)cc2O)nc1` stands -3.35%. Regarding `O=C(Cn1cc2c(n1)CCCC2)NCCc1ccccc1`, the “hERG current change (%, negative = inhibition) at 1uM” value amounted to 8.55%. The result for `COc1ccc(NC(=O)CCOc2ccc(C)cc2)cc1S(=O)(=O)N1CCCCC1` reads -8.59%. The result for `Cc1ccsc1C(=O)Nc1nc2ccccc2[nH]1` reads 6.11%; that for `O=C(N/N=C/c1ccccc1C(=O)O)C(=O)N1CCCCC1`, 15.7%. The result for `CC(=O)Nc1ccc(C(=O)OCC(=O)c2ccc(S(=O)(=O)N3CCCCC3)cc2)cc1` reads 14.2%.

Regarding `COc1cc2c(-c3ccc(O)cc3)nc3c(c(C)nn3-c3ccccc3)c2cc1OC`, the “hERG current change (%, negative = inhibition) at 1uM” value is recorded as 14.6%. Under `CCN1C(=NCCc2cccs2)N[C@@H](c2cccs2)C(C(=O)OC)=C1C` stands -13.7%; under `Cc1ccc2cc(C#N)c(NCc3ccco3)nc2c1`, 11.1%; under `COc1ccc(/C=N/NC(=O)CCSc2nc3ccccc3s2)cc1OC`, 8.32%. The result for `O=C(COC(=O)c1ccc2ncsc2c1)NC(=O)c1ccccc1` reads 15%. Under `CN(C(=O)COC(=O)c1ccc([N+](=O)[O-])cc1N)c1ccccc1` stands -0.885%; under `c1ccc(CSc2nc3ccccc3[nH]2)cc1`, 9.75%. As for `CC1Cc2cc(/C(O)=C3/C(=O)C(=O)N(CCN4CCOCC4)C3c3ccc(C(C)C)cc3)ccc2O1` (centres unmarked), the “hERG current change (%, negative = inhibition) at 1uM” value worked out at 13.8%. As to `CCOc1ccc(CN(C)CC(=O)c2c(N)n(Cc3ccccc3)c(=O)n(CC)c2=O)cc1OC`, the “hERG current change (%, negative = inhibition) at 1uM” value is recorded as -82.5%. The result for `COc1cccc2cc(C(=O)Oc3ccccc3)c(=O)oc12` reads 11.8%; that for `C[C@H](NC(=O)[C@@H]1Cc2ccccc2CN1)C(=O)Nc1ccc2c(c1)OCCO2`, 20.4%; that for `Cn1c(CNC(=O)c2cccs2)nnc1SCC(=O)Nc1ccccc1`, 13.3%. The result for `Cc1ccccc1NC(=O)CSc1nc(-c2ccccc2)cc(=O)[nH]1` reads 15%; that for `COc1cc(CNC(=O)C2CCC(=O)N(C3CCCCCC3)C2)cc(OC)c1` (centres unmarked), 9.26%; that for `Cc1cccc(C)c1NC(=O)CSc1nnc([C@@H]2CCCN2C(=O)OC(C)(C)C)o1`, 2%. `COC(=O)c1ccccc1NC(=O)CNc1ccc(F)c(S(=O)(=O)N2CCOCC2)c1`: the “hERG current change (%, negative = inhibition) at 1uM” value is reported as -4.51%. As for `Clc1cccc(CN2CCCCCC2)c1Cl`, the “hERG current change (%, negative = inhibition) at 1uM” value amounted to 9.57%. For `Cc1ccc(C(=O)NCCC(=O)NCc2cc(=O)n(C)c(=O)n2C)cc1`, the “hERG current change (%, negative = inhibition) at 1uM” value amounted to 3.2%. Regarding `Cc1oc(C(=O)O)cc1COc1cccc2cccnc12`, the “hERG current change (%, negative = inhibition) at 1uM” value is reported as -5.92%. The result for `COC(=O)c1ccc(NC(=O)CSc2nnc(-c3cccnc3)o2)cc1` reads -6.83%.

`CCNc1nn2ccccc2c1/C=C(\C#N)C(=O)OCC`: the “hERG current change (%, negative = inhibition) at 1uM” value stood at 12.6%. Under `COc1ccc(N2CCN(C(c3cccs3)c3nnnn3C3CCCC3)CC2)cc1` (centres unmarked) stands -8.12%; under `CCCCN(C(=O)c1ccccc1OCc1ccc(F)cc1)c1c(N)n(CC(C)C)c(=O)[nH]c1=O`, 6.23%. Under `COc1ccc(Cl)cc1/C=N/NC(=O)c1c(-c2ccccc2)noc1C` stands 6.85%.

As to `N/C(=N\OC(=O)c1ccccc1Cl)c1ccncc1`, the “hERG current change (%, negative = inhibition) at 1uM” value is listed as 10.3%. The result for `Nc1nc(Sc2ccc(C(F)(F)F)cc2[N+](=O)[O-])n[nH]1` reads 0.481%; that for `Cc1cc(C)cc(N2CC(C(=O)Nc3cc(C)on3)CC2=O)c1` (centres unmarked), 13.5%. Under `Cn1c(/C=C/N(Cc2ccccc2)c2ccccc2)c([N+](=O)[O-])c(=O)n(C)c1=O` stands -8.63%; under `CCOc1cc(-c2noc(CCC(=O)NCC3CCCO3)n2)ccc1OC` (centres unmarked), 11.2%. The result for `CCOC(=O)c1c(C)[nH]c(C(=O)COC(=O)Cn2cc(C(F)(F)F)ccc2=O)c1C` reads 17.5%; that for `CCn1c(SCC(=O)Nc2ccccc2)nnc1-c1ccc(S(=O)(=O)N2CCOCC2)cc1`, 4.24%.

Regarding `COC(=O)C1=C(c2ccc(F)cc2OCc2ccccc2)C[C@@H]2CC[C@H]1N2C(=O)NCc1ccc(Br)cc1`, the “hERG current change (%, negative = inhibition) at 1uM” value was found to be 18.1%. Under `COc1ccc(-c2cc3nc(C)cc(C)n3n2)cc1` stands 3.78%. The result for `CCc1nc(SCCO)c2oc3ccccc3c2n1` reads 13.5%; that for `O=C(COc1ccc(-c2ccccc2)cc1)N/N=C/c1cccnc1`, 11.7%. Under `COc1ccccc1CCNC(=O)C(=O)NCCC1CCCCN1S(=O)(=O)c1ccccc1` (centres unmarked) stands -2.26%; under `c1ccc(-c2nc(-c3cccs3)[nH]c2-c2ccccc2)cc1`, 20.2%; under `O=C(O)C1CCC(N2C(=O)C3CCCCC3C2=O)CC1` (centres unmarked), 9.98%. Consider `O=C(N=Nc1c(O)n(Cc2ccccc2)c2ccccc12)c1cc2ccccc2cc1O`, for which the “hERG current change (%, negative = inhibition) at 1uM” value stood at 14.7%. Under `Cn1c(C(=O)NCc2ccccn2)cc2c(=O)n(C)c3ccccc3c21` stands 6.99%; under `OC(CN1c2ccccc2Sc2ccccc21)Cn1nnc2ccccc21` (centres unmarked), 12.9%; under `Cl.Nc1nonc1C(=O)NCCNCc1ccccc1OCc1ccccc1F`, -10.8%.

With `CCN(Cc1cccc(OC)c1)CC1CCCN(CCc2cccc(OC)c2)C1` (centres unmarked), the “hERG current change (%, negative = inhibition) at 1uM” value came to 6.78%.

On to `CCc1cc(C(=O)OC)c(NC(=O)CN2CCN(C(=O)C3CCCO3)CC2)s1` (centres unmarked), for which the “hERG current change (%, negative = inhibition) at 1uM” value is -19.5%. The result for `COc1ccc(C(CNC(=O)Cc2ccccc2)N2CCCCC2)cc1` (centres unmarked) reads 13.3%; that for `Clc1ccc(SCc2cc(-c3ccccc3)no2)cc1`, 2.91%. The result for `COC(=O)c1scc(C)c1N/N=C(\C)c1ccc(F)cc1F` reads 3.73%; that for `Cc1nc2ccccc2c(=O)n1/N=C/c1ccncc1`, 13.1%. Under `OCC(O)/C=N/Nc1nc(Nc2ccccc2)nc(Nc2ccccc2)n1` (centres unmarked) stands 4.04%; under `C#CCOCCOCCOCCNc1nc(N2CCN(C(=O)[C@H]([C@@H](C)CC)n3cc([C@@H](N)CC(C)C)nn3)CC2)nc(N2CCN(C(=O)[C@H]([C@@H](C)CC)n3cc([C@@H](N)CC(C)C)nn3)CC2)n1.Cl`, 3.85%. For `CN(CCOc1ccc(Cl)cc1)C(=O)CN1C(=O)NC2(CCCCC2)C1=O`, the “hERG current change (%, negative = inhibition) at 1uM” value was -2.65%. Under `COc1ccc2ccccc2c1/C=N/n1cnnc1` stands 9.2%; under `Cc1ccc2[nH]c(=O)c3cc(C(=O)N(C)Cc4ccco4)sc3c2c1`, 12.3%. The result for `Clc1ccc(CCNc2nc3ccccc3s2)cc1` reads 3.14%. Under `CS(=O)(=O)c1ccc(-n2nnc3ccccc32)c([N+](=O)[O-])c1` stands 10.8%; under `COc1cccc(CSc2nc3cc4c(cc3cc2C)OCCO4)c1`, 17.1%. Consider `Cn1cc([N+](=O)[O-])c(C(=O)NCc2cc3cc(Cl)ccc3[nH]2)n1`, for which the “hERG current change (%, negative = inhibition) at 1uM” value is listed as 6.09%.

Consider `COc1ccc(N2CCN(C(=O)COC(=O)COc3cccc(C(F)(F)F)c3)CC2)cc1`, for which the “hERG current change (%, negative = inhibition) at 1uM” value is 7.75%. `COCCOC(=O)C1=C(C)NC2=C(C(=O)CC(C)(C)C2)C1c1cccnc1` (centres unmarked): the “hERG current change (%, negative = inhibition) at 1uM” value stood at 17.6%.

`COc1cccc(C(=O)N/N=c2/oc3ccccc3cc2C(N)=O)c1`: the “hERG current change (%, negative = inhibition) at 1uM” value is listed as 5.68%. The result for `C/C(=N\NC(=O)Cn1ccc(C(F)(F)F)n1)c1ccc2c(c1)OCO2` reads 6.5%.

Regarding `Cc1cnc(CN2CCCC(C(=O)c3ccc4c5c(cccc35)CC4)C2)[nH]1` (centres unmarked), the “hERG current change (%, negative = inhibition) at 1uM” value was 3.77%. The result for `Cc1ccc(NC(=O)NNC(=O)C2CC(c3cccnc3)=NO2)cc1` (centres unmarked) reads 8.91%; that for `COCC(C)N1CCC(n2nccc2NC(=O)c2ccc3c(c2)OCO3)CC1` (centres unmarked), 16.6%. For the compound `O=C(CSc1nnc(Cc2ccccc2)o1)c1ccc(F)cc1`, the “hERG current change (%, negative = inhibition) at 1uM” value is listed as 8.66%.
